Assay results: the CheMixHub ionic liquid set
The source gives many values for each of these; only a part stands here.

Assay: xn = mol fraction of the nth substance listed
Conditions: 101 kPa; for electrical conductivity: 313 K

CCCCCCCCCCCC[N+](C)(C)C.[Br-] + O
Conditions | viscosity [mPa·s]
298.15 K, x1 = 8.883e-05 | 0.8988
298.15 K, x1 = 0.0001436 | 0.9014
298.15 K, x1 = 0.0002003 | 0.9037
298.15 K, x1 = 0.0002193 | 0.9058
298.15 K, x1 = 0.0002688 | 0.9094
298.15 K, x1 = 0.0003253 | 0.9145
298.15 K, x1 = 0.0003619 | 0.9151
298.15 K, x1 = 0.0005435 | 0.9292
298.15 K, x1 = 0.0009029 | 0.9587
298.15 K, x1 = 0.001804 | 1.04
313.15 K, x1 = 5.406e-05 | 0.611
313.15 K, x1 = 0.0001081 | 0.612
313.15 K, x1 = 0.0001622 | 0.617
313.15 K, x1 = 0.0002162 | 0.615
313.15 K, x1 = 0.0002702 | 0.617
313.15 K, x1 = 0.0003242 | 0.62
313.15 K, x1 = 0.0003783 | 0.624
313.15 K, x1 = 0.0004323 | 0.626
313.15 K, x1 = 0.0004863 | 0.628
313.15 K, x1 = 0.0005403 | 0.629

CCCCCCCCCCCCCCCC[N+](C)(C)C.[Br-] + O + CO
Conditions | electrical conductivity [S/m]
x1 = 9.57e-05, x2 = 0.9199 | 0.08
x1 = 0.0001148, x2 = 0.9199 | 0.087
x1 = 0.000134, x2 = 0.9199 | 0.093
x1 = 0.0001531, x2 = 0.9199 | 0.0991
x1 = 0.0001722, x2 = 0.9198 | 0.105
x1 = 0.0001914, x2 = 0.9198 | 0.111
x1 = 0.0002105, x2 = 0.9198 | 0.117
x1 = 0.0002296, x2 = 0.9198 | 0.122
x1 = 0.0002488, x2 = 0.9198 | 0.128
x1 = 0.0002679, x2 = 0.9198 | 0.134
